Data from PubChem BioAssay AID624417 (National Center for Advancing Translational Sciences (NCATS), 2012).
Among all 410,000 compounds or so, about 6,400 (1.6%) were called active. The shares of active, inactive and inconclusive entries below differ from those in the screen. Calls follow the shape of the dose curve; as a rule, active = well fitted inhibition curve with a large enough effect; inconclusive = small, poorly fitted or top-dose-only effect; inactive = no such curve, though single readings can be large or run the other way. Potencies of inconclusive entries are left out as doubtful fits.

biological target: Glucagon-like peptide 1 receptor (Homo sapiens) (UniProt P43220); experiment: qHTS of GLP-1 Receptor Inverse Agonists (Inhibition Mode); settings: HEK293 GLP-1R CRE-luciferase, luminescence, 24 h, GLP-1R form is constitutively active; series mostly up to 38.3 µM; also: nearly all actives have a fitted effect of over 55% in size
UniProt P43220, sequence (P43220 whole entry, looked up): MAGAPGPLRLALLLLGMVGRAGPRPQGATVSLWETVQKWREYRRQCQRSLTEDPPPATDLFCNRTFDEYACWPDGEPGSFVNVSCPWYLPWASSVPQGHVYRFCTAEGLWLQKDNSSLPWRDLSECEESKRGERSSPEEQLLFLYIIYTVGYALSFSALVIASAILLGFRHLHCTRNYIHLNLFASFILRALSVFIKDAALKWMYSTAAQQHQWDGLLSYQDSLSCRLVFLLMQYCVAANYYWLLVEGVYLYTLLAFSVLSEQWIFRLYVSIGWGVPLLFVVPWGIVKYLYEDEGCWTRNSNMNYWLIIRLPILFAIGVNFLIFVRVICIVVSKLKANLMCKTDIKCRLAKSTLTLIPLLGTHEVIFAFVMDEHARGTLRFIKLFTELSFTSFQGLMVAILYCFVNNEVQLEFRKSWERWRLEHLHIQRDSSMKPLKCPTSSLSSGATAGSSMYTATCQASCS
Method in brief: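 Assay principle: reduced luminescence from a cAMP-responsive reporter in HEK293 cells co-expressing a constitutively active GLP-1R. Conditions: 24 hr compound incubation, 37 deg C, 5% CO2.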
Potency is read from the fitted curve at half-maximal effect; tags tell the direction and shape of the fitted curve.

Compound	Potency
O=C(/C=C/c1cccc(Br)c1)c1ccc2c(c1)OCO2	inconclusive [inhibitor, single point]
CCOC(=O)C1CCCCN1Cc1cccc(OCc2ccccc2)c1 (stereo not drawn)	active: 10 µM
CCCC(C(=O)OCCN(CC)CC)(c1ccccc1)c1ccccc1	inconclusive [inhibitor, partial curve, poor fit]
CCOC(=O)C1=C(CNC2CCCCC2)NC(=O)NC1c1cc(C)ccc1C (stereo not drawn)	inconclusive [inhibitor, single point]
COc1ccc(NC(=O)CN(C)C(=O)c2cccc(S(=O)(=O)N3CCN(c4ccc(F)cc4)CC3)c2)cc1	inconclusive [inhibitor, single point]
CN(C)/C=C/C(=O)/C=C/c1ccc(Cl)cc1	inconclusive [inhibitor, single point]
CC(=O)N1c2ccc(S(=O)(=O)N3CCC(C(=O)N4CCN(c5cc(Cl)ccc5C)CC4)CC3)cc2CC1C (stereo not drawn)	inconclusive [inhibitor, partial curve, poor fit]
O=C(Nc1cc(Sc2nc3ccccc3s2)cc([N+](=O)[O-])c1)c1ccccc1F	inconclusive [inhibitor, partial curve, poor fit]
CCCCc1ccc(S(=O)(=O)NNC(=S)NCc2ccco2)cc1	inconclusive [inhibitor, single point]
COc1ccc(C2/C=C\CN(S(=O)(=O)/C=C/c3ccccc3)CC(=O)N2Cc2ccc(F)cc2)cc1 (stereo not drawn)	inconclusive [inhibitor, partial curve, poor fit]
CCN1CCN(Cc2c(O)ccc3c(C)c(-c4ccccc4)c(=O)oc23)CC1	inconclusive [inhibitor, single point]
COCC(=O)Nc1nc2ccc(C)cc2s1	inconclusive [inhibitor, single point]
CCn1cc(/C=C(\NC(=O)c2ccccc2F)C(=O)N2CCCC2)c2ccccc21	inconclusive [inhibitor, partial curve, poor fit]
CN(C)CCNC(=O)/C(=C/c1ccc(-c2cccc(Cl)c2)o1)NC(=O)c1ccccc1	inconclusive [inhibitor, single point]
CCOC(=O)c1c(C)[nH]c(C(=O)OC/C(O)=C(\C#N)c2nc3ccccc3[nH]2)c1C	inconclusive [inhibitor, partial curve, poor fit]
COc1ccc(NC(=O)CC2C(=O)N(c3ccc(C)cc3)C(=O)N2Cc2cccnc2)cc1 (stereo not drawn)	inactive
CCOC(=O)N1CCC2(CC1)OC(=O)C(C)=C2C(=O)NCc1cccc(OC)c1	inactive
CNC(=O)c1sc2ncccc2c1-n1cccc1	inactive
COc1ccccc1C1CC(c2ccccc2)Nc2ncnn21 (stereo not drawn)	inactive
CCOc1ccc(C(=O)c2cccs2)cc1	inconclusive [inhibitor, single point]
Cc1ccc(-n2ccnc(SCC(=O)NC3CCCCC3)c2=O)cc1F	inconclusive [inhibitor, single point]
CCN(CC)CCCNC(=O)c1cc2c(-c3ccc(Cl)cc3)nn(C)c2s1	active: 3.55 µM

Compound	Potency
O=C(NCc1ccc(F)cc1)c1cc(C2CCCN(S(=O)(=O)c3ccccc3)C2)on1 (stereo not drawn)	inconclusive [inhibitor, partial curve]
CCOc1ccc(S(=O)(=O)N2CCCCC2)c(C)c1C	inconclusive [inhibitor, partial curve, poor fit]
CN(C)c1ccc(/C=N/n2c(C3CCCCC3)n[nH]c2=S)cc1	inconclusive [inhibitor, single point]
CN1CCN(CC(O)Cn2c3ccccc3c3ccccc32)CC1 (stereo not drawn)	inconclusive [inhibitor, single point]
COc1cc(O)c(C(CCN2CCN(c3ccccc3)CC2)c2ccc(N(C)C)cc2)c(OC)c1 (stereo not drawn)	inconclusive [inhibitor, single point]
CC1CCC(NC(=O)c2cc3ccccc3cc2O)CC1 (stereo not drawn)	inconclusive [inhibitor, single point]
Cc1ccc(C)c(NC(=O)C(=O)NCCc2csc3nc(-c4ccccc4C)nn23)c1	inactive
CC12CCC(C(=O)N(CSC(=S)N/N=C\c3ccccc3Cl)C1=O)C2(C)C (stereo not drawn)	inconclusive [inhibitor, partial curve, poor fit]
COC(=O)NCc1c(C)nn(-c2ccccc2)c1-n1cccc1	inactive
NC(N)=N/N=C(\N=Nc1ccccc1)c1ccc(Cl)cc1	active: 10 µM
O=C(c1cccc(S(=O)(=O)N2CCCC2)c1)N1CCCC(C(F)(F)F)C1 (stereo not drawn)	inactive
Cc1sc2ncnc(N3CCC(C(=O)Nc4ccc(OC(F)F)c(Cl)c4)CC3)c2c1C	inconclusive [inhibitor, single point]
S=c1[nH]ncn1NCc1ccc(Cl)cc1Cl	inactive
CN(C)Cc1csc(NC(=O)Nc2cccc(Cl)c2)n1	inconclusive [inhibitor, single point]
Cn1nc(C(=O)OCC(=O)Nc2ccc(C(N)=O)cc2)c2ccccc2c1=O	inactive
CC1CCCN(CC(O)COCc2ccccc2)C1 (stereo not drawn)	inactive
CC(C)(C)OC(=O)N1CCC(c2c(C(=O)Nc3ccc4c(c3)OCCO4)cnn2-c2ccccc2)CC1	inconclusive [inhibitor, partial curve, poor fit]
COc1cccc(CNC(=O)C(Cc2ccccc2)n2cccc2)c1 (stereo not drawn)	inconclusive [inhibitor, partial curve, poor fit]
C/C(=N\NS(=O)(=O)c1ccc(C(C)(C)C)cc1)c1ccccc1	inconclusive [inhibitor, single point]
O=C(NCc1ccc(F)cc1)C1CCN(S(=O)(=O)N2CCOCC2)CC1	inactive
COc1cc(NC(=O)[C@@H]2CCCN(S(=O)(=O)c3cccc4cccnc34)C2)cc(OC)c1OC	inactive
